Source: PubChem BioAssay AID1508642 (National Center for Advancing Translational Sciences (NCATS), 2021)
Screen size: about 43,000 compounds; about 200 (0.47%) were called active. The inconclusive results got no clear call from the source; some entries with a clear call stand among them for comparison. Calls follow the shape of the dose curve; as a rule, active = well fitted cell-killing curve with a large enough effect; inconclusive = small, poorly fitted or top-dose-only effect, or effect the other way; inactive = flat fitted curve, though single readings scatter. Potencies beside an inconclusive call are fits to weak or partial responses and may not hold up.

test: Cell viability qHTS assay in S16 Pmp22-F2sN cells; conditions: S16 Pmp22-F2sN Schwann cells viability, CellTiter-Glo, 24 h; activity change, negative = cytotoxicity: at 57.5 µM (top of the series); also: nearly all actives have a fitted effect of over 65% in size
Outline: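 S16 Pmp22-F2sN Schwann cells (500-1,000/well) in phenol-red-free DMEM with 10% FBS received 23 nL compound by pin tool for 24 h at 37 °C. Viability was then read as CellTiter-Glo luminescence after 15 min at room temperature.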
% is scaled to controls: 0 for no effect and ±100 for the full control effect; potency is read from the fitted curve at half-maximal effect; tags tell the direction and shape of the fitted curve.

| Structure (SMILES) | Potency | activity change, negative = cytotoxicity |
| --- | --- | --- |
| Cc1ccc(C2=CC(c3ccc(Cl)cc3)n3nc(-c4ccc(C)cc4)nc3N2)cc1 (stereo not drawn) | inconclusive: 20 µM [cytotoxic, partial curve, poor fit] | – |
| COc1cc(NC(=O)CN2C(=O)C(c3ccc(Cl)cc3)=NC23CCCCC3)cc(OC)c1 | inconclusive: 39.8 µM [cytotoxic, single point] | – |
| Cc1cc2c(cc3c(SCc4cccc(F)c4)nnc(C)n32)o1 | inconclusive: 28.2 µM [cytotoxic, single point] | – |
| COc1ccc(CCNC(=O)c2cc3c(-c4ccc(OC)c(OC)c4)nn(C)c3s2)cc1OC | – | inactive: 17% |
| Cc1ccc(Cl)cc1N1CCN(C(=O)c2ccc(CS(=O)(=O)c3ccc(Br)cc3)o2)CC1 | inconclusive: 39.8 µM [cytotoxic, single point] | – |
| COc1cc(NS(=O)(=O)c2ccc3[nH]c4c(c3c2)CCCC4)cc(OC)c1OC | – | inactive: -6.81% |
| CCOC(=O)C1CCCN(c2c(C(=O)c3ccc(C)cc3)cnc3ccc(OCC)cc23)C1 (stereo not drawn) | – | inactive: -1.87% |
| Cc1ccc(Nc2c(-c3ccc(N4CCOCC4)cc3)nc3c(C)cccn23)cc1 | inconclusive: 39.8 µM [cytotoxic, single point] | – |
| COc1ccc(CNC(=O)CCC2N=C3c4ccccc4N=C(SCc4ccc(F)cc4)N3C2=O)cc1 (stereo not drawn) | inconclusive: 11.2 µM [cytotoxic, partial curve, poor fit] | – |
| CCN1CCOC(=O)C1CC(=O)Nc1ccc(C)c(Cl)c1 (stereo not drawn) | inconclusive: 39.8 µM [cytotoxic, single point] | – |
| O=C(Nc1ccc(F)cc1)c1oc2ccccc2c1NC(=O)C1CCCCC1 | – | inactive: 9.91% |
| CCOC(=O)c1cc2c(=O)n3ccccc3nc2n(CC2CCCO2)c1=NC(=O)c1cccc(C)c1 (stereo not drawn) | inconclusive: 25.1 µM [cytotoxic, partial curve] | – |
| COc1ccc(-n2cc(-c3ccccc3)c3c(N4CCCC(C)C4)ncnc32)cc1 (stereo not drawn) | inconclusive: 17.8 µM [rising, partial curve, poor fit] | – |
| O=C(Cn1cc(S(=O)(=O)Cc2cccc(Cl)c2)c2ccccc21)Nc1ccccc1C(F)(F)F | inconclusive: 7.08 µM [cytotoxic, full curve, poor fit] | – |
| CC(=O)N1c2ccc(S(=O)(=O)N3CCC(C(=O)Nc4cccc(Cl)c4C)CC3)cc2CC1C (stereo not drawn) | inconclusive: 22.4 µM [cytotoxic, single point] | – |
| CCOC(=O)c1ccc(NC(=O)CCCc2nc(-c3cc(OC)c(OC)c(OC)c3)no2)cc1 | – | inactive: 0.0337% |
| CCn1cc(C(=O)NCCc2ccccc2)c(=O)c2cc(S(=O)(=O)N3CCCCCC3)ccc21 | inconclusive: 35.5 µM [cytotoxic, single point] | – |
| COc1ccc(S(=O)(=O)N(CC(=O)N2CCc3ccccc3C2)c2ccc(C)cc2)cc1 | inconclusive: 39.8 µM [rising, single point] | – |
| COc1ccc(OC)c(CNC(=O)c2c(C)oc3ncn(CC(C)C)c(=O)c23)c1 | inconclusive: 28.2 µM [cytotoxic, single point] | – |
| CCc1cccc(NC(=O)Cn2c(-c3ccc(F)cc3)cc(C(C)=O)c2C)c1 | inconclusive: 31.6 µM [cytotoxic, partial curve, poor fit] | – |

| Structure (SMILES) | Potency | activity change, negative = cytotoxicity |
| --- | --- | --- |
| O=C(CSc1nc2ccccc2nc1Cc1ccc(Cl)cc1)N1CCCCC1 | inconclusive: 39.8 µM [cytotoxic, single point] | – |
| CCOCCCn1c(SCC(=O)Nc2ccc(F)cc2)nc2c(sc3ccccc32)c1=O | inconclusive: 39.8 µM [cytotoxic, single point] | – |
| C=Cc1ccc(CSc2nc(-c3ccccc3C)nc3c2Cc2c(CO)cnc(C)c2O3)cc1 | inconclusive: 39.8 µM [cytotoxic, single point] | – |
| Cc1cc(N2CCN(C)CC2)nc2ccc(NC(=O)Nc3ccc(Cl)cc3)cc12 | – | inactive: -26% |
| O=C(NCCc1ccccc1)C(=O)NCC(c1cccnc1)N1CCN(c2ccccc2)CC1 (stereo not drawn) | inconclusive: 35.5 µM [cytotoxic, single point] | – |
| O=C(Cn1cc(S(=O)(=O)N2CCN(c3ccccc3F)CC2)c2ccccc2c1=O)Nc1cccc(C(F)(F)F)c1 | – | inactive: -0.811% |
| COc1cc(C(=O)Nc2ccc(Cl)c(-c3nc4ncccc4o3)c2)cc(OC)c1OC | inconclusive: 20 µM [cytotoxic, partial curve, poor fit] | – |
| COc1ccccc1CNC(=O)C1CCN(S(=O)(=O)c2c(C)noc2/C=C/c2cccs2)CC1 | inconclusive: 31.6 µM [cytotoxic, single point] | – |
| COc1cc(C2C(C(=O)OC(C)C)=C(C)N=C3SCCC(=O)N32)ccc1OCc1ccccc1 (stereo not drawn) | – | inactive: -14.9% |
| COc1cccc(NC(=O)N(Cc2cn(C)c3ccccc23)C2CCCCC2)c1 | inconclusive: 39.8 µM [cytotoxic, single point] | – |
| COc1ccc(OC)c(NC(=O)c2c(NCc3ccc(C)o3)sc3c2CCCCC3)c1 | inconclusive: 14.1 µM [cytotoxic, partial curve, poor fit] | – |
| COc1ccc(CCNc2ncnc3c2c(-c2ccccc2)cn3-c2cccc(Cl)c2)cc1OC | inconclusive: 14.1 µM [cytotoxic, partial curve, poor fit] | – |
| CCOC(=O)c1c(NC(=O)c2ccc(S(=O)(=O)N3CCCC(C)C3)cc2)sc2c1CC(C)(C)NC2(C)C (stereo not drawn) | inconclusive: 39.8 µM [cytotoxic, single point] | – |
| COc1ccc(NC(=O)Cn2c(=O)c3cccn3c3ccccc32)cc1 | – | inactive: 5.31% |
| CCCC1=Nc2cc(C(=O)NCc3ccccc3)ccc2Sc2ccccc21 | inconclusive: 17.8 µM [cytotoxic, single point] | – |
| COc1cc(OC)cc(C(=O)Nc2ccc3c(c2)CCCN3C(=O)c2cccs2)c1 | inconclusive: 28.2 µM [cytotoxic, single point] | – |
| CCCCN(C)S(=O)(=O)c1ccc(C(=O)Nc2sc3c(c2C(=O)OCC)CCN(C(C)C)C3)cc1 | inconclusive: 39.8 µM [cytotoxic, single point] | – |
| Cc1cccc(C(=O)N2CCc3cc(CNC(=O)c4ccco4)ccc32)c1 | inconclusive: 31.6 µM [cytotoxic, single point] | – |
| COc1ccccc1CNc1nccn(-c2ccc(F)cc2)c1=O | inconclusive: 12.6 µM [rising, partial curve] | – |
| COc1ccccc1NC(=O)CSc1nnc2c(n1)[nH]c1ccccc12 | inconclusive: 31.6 µM [cytotoxic, single point] | – |

| Structure (SMILES) | Potency | activity change, negative = cytotoxicity |
| --- | --- | --- |
| CCOC(=O)c1c(C)oc2ccc(N(C(=O)c3ccncc3)S(=O)(=O)c3ccc(F)cc3C)cc12 | – | inactive: -22% |
| O=C(CSC1=Nc2ccccc2C2=NC(Cc3ccccc3)C(=O)N12)Nc1cccc(Cl)c1 (stereo not drawn) | inconclusive: 35.5 µM [cytotoxic, single point] | – |
| CCOc1ccccc1CNS(=O)(=O)c1ccc(-c2cnc(C3CC3)o2)cc1 | inconclusive: 2.82 µM [cytotoxic, full curve] | – |
| CCOC(=O)c1cc(NC(=O)c2ccccc2)c(=O)n2c1oc1ccc(Cl)cc12 | inconclusive: 4.47 µM [rising, full curve] | – |
| COc1ccc(S(=O)(=O)c2cn(C)c3cc(N4CCCCCC4)c(F)cc3c2=O)cc1 | inconclusive: 31.6 µM [cytotoxic, single point] | – |
| Cc1ccc(-n2nc(CO)c(C(=O)NCc3cccnc3)n2)cc1C | inconclusive: 25.1 µM [cytotoxic, single point] | – |
| COC(=O)c1cccc(Nc2c(-c3ccc(OC)cc3)nc3nc[nH]n23)c1 | inconclusive: 22.4 µM [cytotoxic, partial curve, poor fit] | – |
| Cc1ccc(Cl)cc1-n1ncc2c(NC3CCCCC3)ncnc21 | inconclusive: 28.2 µM [cytotoxic, single point] | – |
| Cc1cccc2sc(N3CCN(C(=O)CS(=O)(=O)c4ccc(F)cc4)CC3)nc12 | inconclusive: 31.6 µM [cytotoxic, single point] | – |
| Cc1cccc(C(=O)N2CCc3cc(CNC(=O)c4ccc(Br)o4)ccc32)c1 | inconclusive: 28.2 µM [cytotoxic, partial curve, poor fit] | – |
| COc1ccc(NC(=O)CN(C)S(=O)(=O)c2ccc3c(c2)CCC(=O)N3)c(OC)c1 | inconclusive: 31.6 µM [cytotoxic, single point] | – |
| COc1ccc(NC(=O)Cn2c(=O)n(Cc3ccco3)c(=O)c3cc(OC)c(OC)cc32)cc1 | inconclusive: 39.8 µM [cytotoxic, single point] | – |
| Cc1c(Cl)cccc1NC(=O)Cn1cc(C(=O)C2CCCCC2)c2ccccc21 | inconclusive: 8.91 µM [cytotoxic, partial curve] | – |
| Cc1ccc(NC(=O)CSC2=Nc3ccccc3C3=NC(Cc4ccccc4)C(=O)N23)cc1C (stereo not drawn) | inconclusive: 31.6 µM [cytotoxic, single point] | – |
| CC1CCCCN1CCCNC(=O)c1[nH]c2ccccc2c1Sc1ccc(Cl)cc1 (stereo not drawn) | inconclusive: 39.8 µM [cytotoxic, single point] | – |
| CCN1C(=O)c2ccccc2Sc2ccc(NC(=O)Nc3ccccc3OC)cc21 | inconclusive: 39.8 µM [cytotoxic, single point] | – |
| Cc1ccc(NC(=O)c2ccc3oc(=O)c(S(=O)(=O)c4ccccc4)cc3c2)cc1C | inconclusive: 25.1 µM [cytotoxic, partial curve, poor fit] | – |
| O=C(CSc1nc2c(sc3ccccc32)c(=O)n1CCCC(=O)NC1CCCC1)Nc1ccc(F)cc1 | inconclusive: 3.55 µM [cytotoxic, partial curve, poor fit] | – |
